Results reported in a compilation of properties of binary mixtures (doi:10.1016/j.jct.2010.07.014).
The densities may have been worked out from excess volumes.

Experiment: xn = mol fraction of the nth substance listed
Settings: 101 kPa

CCCC[n+]1ccccc1.F[B-](F)(F)F + CCO
mass density [kg/m3]
Settings	303.15 K	313.15 K	323.15 K
x2 = 0.072	1200.5	–	1186.9
x2 = 0.147	1189.4	1182.7	1175.7
x2 = 0.2229	–	1169.9	–
x2 = 0.3295	1155.7	1148.8	1141.7
x2 = 0.4136	1135.9	1128.8	–
x2 = 0.5006	1111.8	1104.6	1097.3
x2 = 0.5789	–	–	1071.2
x2 = 0.7074	1030.7	1023.2	1016
x2 = 0.8052	–	965.7	958.5
x2 = 0.8999	897.8	889.7	–
x2 = 0.948	847.8	839.4	831.1

CCCC[n+]1ccccc1.F[B-](F)(F)F + CO
Settings	mass density [kg/m3]
293.15 K, x2 = 0.2119	1195.3
293.15 K, x2 = 0.3113	1181.8
293.15 K, x2 = 0.3856	1170
293.15 K, x2 = 0.7044	1081.1
293.15 K, x2 = 0.9023	942.3
303.15 K, x2 = 0.2119	1188.2
303.15 K, x2 = 0.3856	1162.6
303.15 K, x2 = 0.6109	1109.2
303.15 K, x2 = 0.9023	933.5
313.15 K, x2 = 0.1058	1193.4
313.15 K, x2 = 0.2119	1181.4
313.15 K, x2 = 0.3113	1167.7
313.15 K, x2 = 0.3856	1155.6
313.15 K, x2 = 0.6109	1101.9
313.15 K, x2 = 0.7044	1066.2
313.15 K, x2 = 0.9512	862
323.15 K, x2 = 0.211	1174.3
323.15 K, x2 = 0.3066	1161.4
323.15 K, x2 = 0.4111	1144
323.15 K, x2 = 0.5203	1120.6
323.15 K, x2 = 0.703	1059.9
323.15 K, x2 = 0.8081	1001.3
323.15 K, x2 = 0.9038	916.3
